“And” between values parts separate entries of the source, which are not always exact repeats. Equal values may be shown once.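 Tested at 5 concentrations; 48 h exposure; 96-well plates; endpoints linearly interpolated, else capped at highest concentration. GI50: concentration for 50% inhibition of growth. Definition used: TGI = concentration required for complete inhibition of growth.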
test system: NCI-H322M lung; experiment: NCI-60 cell line screen, 48 h

SMILES	GI50	TGI
O=C1C(Cl)=C(Nc2cccc(O)c2)C(=O)N1c1ccccc1Cl	27.3 µM	> 100 µM
N#Cc1ccc(C(c2ccc(C#N)cc2)n2cncn2)cc1	> 5000 µM	> 5000 µM
COc1ccc(-c2cc(-c3cc(OC)c(OC)c(OC)c3)c(C#N)c(N3CCOCC3)n2)cc1O	> 26.1 µM	> 100 µM
COc1ccc([C@@]23OC[C@@H]4[C@@H](OC[C@@H]42)c2cc(OC)c(OC)cc23)cc1OC	–	> 100 µM
CCC(C(=O)[O-])C(=O)[O-].CCC(C(=O)[O-])C(=O)[O-].N.N.NCCCCCCN.[Pt+4].[Pt+4]	20.1 µM	29.7 µM
Cc1ccc2[nH]c3c(ncc4[nH]c5ccccc5c43)c2c1	–	30 µM
C=C1C(=O)O[C@H]2[C@H]1CC(=O)/C(C)=C/CC[C@@]1(C)O[C@@H]21	–	25 µM
COc1c(O)c2c(=O)cc(OC)c3c4c(OC)cc(=O)c5c(O)c(OC)c6c(c(c1C(C(C)=O)C6C(C)O)c23)c54 (stereo unspecified)	–	2.03 µM
O=C1CCc2c(sc3[nH]c(=S)n(Cc4ccccc4)c(=O)c23)C1	3.46 µM	> 100 µM
N[C@@H]1CCCN(c2c(/C=C3\SC(=O)NC3=O)cccc2-c2ccccc2)C1	14.7 µM	29.7 µM
CC(C)C(/C=C/c1ccc(Br)cc1)=N\NC(N)=O	–	> 100 µM
COc1cccc2[nH]c(-c3ccccn3)nc12	–	> 100 µM
O=C1/C(=C/c2ccc(Cl)cc2)N=C(c2ccccc2)N1c1ccc(S(=O)(=O)Nc2nccs2)cc1	–	> 100 µM
O=c1cc(-c2ccccc2)oc2cc(OCCSCCCCCCCCCCSCCOc3ccc4c(=O)cc(-c5ccccc5)oc4c3)ccc12	–	> 100 µM
CC(=O)[O-].O=C([CH-]C(=O)c1ccccc1)c1ccccc1.O=C([CH-]C(=O)c1ccccc1)c1ccccc1.[Y+3]	7.56 µM	27.8 µM
C=C(C)[C@@H]1CC[C@]2(COC3CCCCO3)CC[C@]3(C)[C@H](CC[C@@H]4[C@@]5(C)C=C(C=O)C(=O)C(C)(C)[C@@H]5CC[C@]43C)[C@@H]12 (stereo partly specified)	2.18 µM	5.24 µM
CCS(=O)(=O)CCn1cnc2c1c(=O)n(C)c(=O)n2C	–	> 100 µM
COC(=O)c1ccc(Cc2ccc(C(=O)OC)o2)o1	–	> 378 µM
COc1ccc(C(=O)/C=C/c2ccc(OCC(=O)N3CCN(c4ccccc4)CC3)cc2)cc1	–	> 100 µM
OC1CN2Cc3cc4c(cc3[C@]13C=C[C@@H](O)CC23)OCO4 (stereo partly specified)	–	> 100 µM
O=C(O)Cn1c(=O)[nH]c(=O)c2c1ncn2Cc1ccccc1	–	> 100 µM
COc1cc2c(cc1OCc1ccccc1)NC(=S)[C@@H]1CCCN1C2=S	–	> 100 µM
O=c1[nH]n(Cc2ccccn2)c2ccc([N+](=O)[O-])cc12	–	> 100 µM
CCCCC#CC#Cc1cccc(=O)o1	16.4 µM	44.5 µM
COc1ccc(-c2ccc(/C=N/n3c(C)nn(CN4CCN(C)CC4)c3=S)o2)c([N+](=O)[O-])c1	38.3 µM	> 100 µM

SMILES	GI50	TGI
c1ccc(COCC2OC3c4ccccc4COC3C2OCc2ccccc2)cc1 (stereo unspecified)	–	> 100 µM
COc1ccc(-c2cc(=O)c3c(O)cc(C)cc3o2)cc1OC	–	> 100 µM
Cc1ccc(S(=O)(=O)Cc2nc(-c3ccc(C(=O)NCc4cccnc4)cc3)oc2C)cc1	> 100 µM	> 100 µM
O=C1c2scc(-c3ccc(Cl)cc3)c2-n2cccc21	–	> 100 µM
S=c1sc2nc(Cl)nc(Cl)c2s1	–	31.4 µM
O=C(O)c1oc(C(=O)O)c(C(=O)O)c1C(=O)O	–	> 100 µM
COC12CC(=O)C(C(C)=O)=C(O)C1(C)c1c(OC(C)=O)c(C)c(O)c(C(C)=O)c1O2 (stereo unspecified)	–	> 100 µM
COc1cc(-c2cc(=O)c3cc(C)c(C)c(C(=O)O)c3o2)cc(OC)c1OC	–	> 100 µM
C=CC[C@@H]1C(=O)[C@@]2(O[Si](C(C)C)(C(C)C)C(C)C)CC[C@@H]1C[C@H]2NC(=O)OCC(Cl)(Cl)Cl	–	> 100 µM
CCOC(=O)Nc1ccc(-c2nc(-c3cccc(OC)c3)c(-c3ccnc(Br)c3)[nH]2)cc1	2.46 µM	8.38 µM
O=C1NC(N2CCCC(CO)C2)=N/C1=C\c1ccc(Cl)cc1 (stereo unspecified)	–	> 100 µM
CCOC(=O)/C=C1\c2ccccc2C(=O)N1CC(=O)OCC	–	> 100 µM
C=CCOC(=O)[C@@H]1C[C@@H](OC(C)(C)C)CN1C(=O)[C@@H]1[C@H]2OC(C)(C)O[C@H]2CN1C(=O)OCC1c2ccccc2-c2ccccc21	–	32.7 µM
Cn1c2cc(O)cc(O)c2c(=O)c2c([N+](=O)[O-])cccc21	–	> 100 µM
Cc1nc(N)sc1C(=O)Nc1cc(C(=O)NCCCN(C)C)n(C)c1	> 100 µM	> 100 µM
CCc1nc(N)nc(N)c1-c1ccc(NCCc2ccccc2)c([N+](=O)[O-])c1	–	> 44.4 µM
Cc1c(NC(=O)OC[C@@H]2COCCN2)cn2ncnc(Nc3ccc4c(cnn4Cc4cccc(F)c4)c3)c12	0.63 µM and 0.404 µM	> 10 µM and 15.5 µM
NC(=Nc1ccc(O)cc1)S(=O)O	–	> 100 µM
CC1=C[S+](c2ccccc2)c2cccc3cc4ccccc4c1c23 (stereo unspecified)	0.614 µM	2.51 µM
O=C=NCCCCCCN1C(=O)N2C(c3ccccc3)N(CCCCCCN=C=O)C(=O)N2C1c1ccccc1 (stereo unspecified)	–	> 100 µM
CNC1C(O)C(OC2C(N)CC(N)C(OC3OC(C(C)O)C(O)C(O)C3N)C2O)OCC1(C)O (stereo unspecified)	–	> 100 µM
NC(=O)/C=C/NC(=O)/C=N\O	–	> 100 µM
C=CC(C)CCC(C/C=C(\C)CCC=C(C)C)C(=C)CCCC(C)C (stereo unspecified)	–	> 100 µM
Clc1nc2n(c1/C=C/c1cccs1)CCS2	–	> 100 µM
CCOC(=O)C1=C(C)N(NC(N)=O)C2(O)CCCC(=O)C12C (stereo unspecified)	–	> 100 µM

SMILES	GI50	TGI
COc1cc(O)c2c(=O)cc(C3(O)C=CC(=O)C=C3)oc2c1	–	8.32 µM
Nc1nnc(Cn2c(-c3ccccc3)nc3ccc(Br)cc3c2=O)s1	> 100 µM	> 100 µM
CC1OC(OC2C(O)COC(OC3C(C)OC(OC4C(OC(=O)[C@]56CCC(C)(C)C[C@@H]5C5=CCC7[C@@]8(C)C[C@H](O)[C@H](OC9OC(CO)C(O)C(OC%10OC(CO)C(O)C(O)C%10O)C9O)[C@@](C)(CO)[C@@H]8CC[C@@]7(C)[C@]5(C)CC6)OCC(O)C4O)C(O)C3O)C2O)C(O)C(O)C1O (stereo partly specified)	–	30.3 µM
C/C(Cc1ccc(Cl)cc1)=C(/c1ccc(Cl)cc1)c1ccc(OCCN(C)C)cc1	5.04 µM	9.7 µM
COC(=O)[C@@H]1C[C@H]([Se]c2ccccc2)CN1C(=O)OCc1ccccc1	–	> 100 µM
Nc1nc(Cl)c2nnn(CC3CCC(CO)C3)c2n1 (stereo unspecified)	–	> 100 µM
Cc1ccsc1/C=N/Nc1nncc2ccccc12	–	> 100 µM
COc1cc2c(cc1OC)C(=O)C(C1=C(SC(=N)N)C(=O)c3cc(OC)c(OC)cc31)C2 (stereo unspecified)	–	> 100 µM
CCCCCCCCCCCCOC1C(CNC(=O)C2OC3OC(C)(C)OC3C2NC(=O)CN2CCCCCC2)OC2OC(C)(C)OC21 (stereo unspecified)	8.4 µM	23.4 µM
CC(=O)NNc1nc(C)c(C(/C=C/c2ccc(Cl)cc2)=N/NC(=O)C[N+](C)(C)C)s1	–	> 100 µM
CCCCCCCC(=O)SCC/C=C/[C@@H]1CC(=O)NCc2nc(co2)C2=N[C@@](C)(CS2)C(=O)N[C@@H](C(C)C)C(=O)O1	0.0346 µM	–
Cn1ncnc1CCc1ccccc1	–	> 100 µM
CC(=O)Nc1ccc(C(=O)NN2C(=O)C(Cl)C2c2ccccc2O)cc1 (stereo unspecified)	–	> 100 µM
Cc1nc(Nc2ccc([N+](=O)[O-])cc2)sc1C(/C=C/c1ccc(N(C)C)cc1)=N/NC(=O)c1ccccc1	–	> 100 µM
O=C1CC(=O)N(CCc2ccccc2)S(=O)(=O)N1CCc1ccccc1	–	> 100 µM
Cc1ccc(O)c(C(=O)CCCC(=O)c2cc(C)ccc2O)c1	–	> 100 µM
COc1cc2c(cc1OC)C(N)CC2=O (stereo unspecified)	–	> 100 µM
COc1cccc(CC2Cc3ccccc3CC(=O)N2)c1 (stereo unspecified)	–	> 100 µM
CC#CCCN(CC#N)Cc1ccccc1	–	> 100 µM
Cn1c(=S)c2[nH]c(SCCN3CCCC3)nc2n(C)c1=O	–	> 100 µM
COc1ccc(Cn2cc3c(c2-c2cc(OC)c(OC)c(OC)c2)CCc2cnoc2-3)cc1[N+](=O)[O-]	3.45 µM	> 100 µM
CCC1CCc2nc3sc(C(=O)Nc4ccccc4C)c(N)c3cc2C1 (stereo unspecified)	> 100 µM	> 100 µM
O=C1C2c3[nH]c4ccccc4c3[C@@H]3CCCCC3C2C(=O)N1c1ccccc1 (stereo partly specified)	–	> 100 µM
CN(C)c1n/c(=N/c2ncn[nH]2)ss1	–	> 100 µM
CCOC(=O)/C=C(/C(=O)OCC)n1ccc(=O)n(/C(=C/C(=O)OCC)C(=O)OCC)c1=O	–	40.1 µM

SMILES	GI50	TGI
N#CC(Cc1ccccc1Br)N(CCC1=CCCCC1)C(c1ccccc1)c1ccccc1 (stereo unspecified)	–	> 100 µM
O=C(CCCCCCSc1nc(-c2ccc(Cl)cc2)cc(-c2ccc(Cl)cc2)n1)NO	1.61 µM	> 50 µM
N#CC1(C=O)c2ccccc2C=CN1C(=O)c1ccccc1 (stereo unspecified)	–	> 100 µM
COC(=O)C(Cc1nc2ccc(Cl)cc2[nH]c1=O)/C(=N/NC(N)=O)C(=O)Nc1ccc(Cl)cc1 (stereo unspecified)	–	> 100 µM
O=[N+]([O-])c1ccc2ncccc2c1Cl	7.68 µM	24.3 µM
CCCCCC/C=C\CCCCCCCCCC1=CC(=O)C=C(OC)C1=O	–	25.5 µM
Cn1c2c(c3ccccc31)CCN(CCCCN1CCN(c3cccc(Cl)c3)CC1)C2=O	–	31.7 µM
CN(C[C@@H]1COCCO1)S(=O)(=O)Nc1ccc2ccc3ncc(-c4cnn(C)c4)cc3c(=O)c2c1	4.81 µM	> 100 µM
CNCCCNc1nc2ccccc2c2c(=O)c3cc(Cl)ccc3sc12	1.52 µM	2.9 µM
Cc1cn(C2CC(N)C(C(=O)O)O2)c(=O)[nH]c1=O (stereo unspecified)	–	> 100 µM
C#Cc1cccc(Nc2nc3ccc([N+](=O)[O-])cc3nc2Nc2cccc(C#C)c2)c1	0.403 µM	1.91 µM
CCc1nc(Cl)nc(Cl)c1Cl	–	10.1 µM
CCOC(=O)c1cc2c(n1Cc1ccccc1)-c1oncc1CC2	11.7 µM	98.3 µM
Cc1ccc(S(=O)(=O)N2CCCC2C(=O)O[C@H]2CC[C@H]3CC=C[C@H]32)cc1 (stereo partly specified)	–	> 100 µM
Cn1c2c(c3ccccc31)CC(=S)N1CCCC(CC2O)C1 (stereo unspecified)	–	> 100 µM
Cc1ccc(C)c(NC(=O)CCc2nc(=S)[nH][nH]2)c1	–	> 100 µM
COc1cc2nc3cc([N+](=O)[O-])ccc3c(NCCCNCC(C)(C)O)c2cc1OC	0.255 µM	0.833 µM
COC(=O)c1ccccc1/C=C1\Cc2cc(C)c(C)cc2C1=O	–	> 100 µM
CCc1c(Cc2cc(C)cc(C)c2)n2c(nc1=O)SCC2CBr (stereo unspecified)	–	> 50 µM
O=C(O)C12CCCC(CCC1)C2	–	> 100 µM
O=C([O-])c1ccc(C(=O)[O-])cc1.O=C([O-])c1ccc(C(=O)[O-])cc1.[Mo+2].[Mo+2]	> 100 µM	> 100 µM
COc1ccc(-c2c(-c3cc(OC)c4c(c3)OCO4)noc2N)cc1	0.0721 µM	> 100 µM
